From the supplement of paper PMC12067093, “Discovery and optimisation of a covalent ligand for TRIM25 and its application to targeted protein ubiquitination” (Chemical Science, 2025)
Of roughly 21,000 targets only a part is listed; those with the largest changes were picked by preference.

Compound: CC1Cc2ccccc2N1C(=O)C1CCCN(C1)C(=O)CCl (mixture of isomers) [TRIM25 ligand 11 (diastereomer mixture)]
Test: probe-labelled cysteine peptide fold change vs DMSO (competition) (log2 fold change); higher = less target engagement (more negative = stronger competition)
Conditions: 10 µM; THP-1; incubation time: 4 h
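Note: competitive chemoproteomic profiling in live THP-1 cells with an iodoacetamide desthiobiotin (IA-DTB) probe, comparing probe-labelled peptide intensities in compound-treated cells against DMSO-treated controls.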

Chain of UniProt P09382 (P09382 whole entry, looked up): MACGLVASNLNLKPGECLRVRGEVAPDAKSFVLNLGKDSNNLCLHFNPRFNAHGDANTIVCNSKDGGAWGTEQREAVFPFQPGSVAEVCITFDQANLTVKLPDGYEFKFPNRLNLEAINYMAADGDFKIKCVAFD
Chain of UniProt Q16719 (Q16719 whole entry, looked up): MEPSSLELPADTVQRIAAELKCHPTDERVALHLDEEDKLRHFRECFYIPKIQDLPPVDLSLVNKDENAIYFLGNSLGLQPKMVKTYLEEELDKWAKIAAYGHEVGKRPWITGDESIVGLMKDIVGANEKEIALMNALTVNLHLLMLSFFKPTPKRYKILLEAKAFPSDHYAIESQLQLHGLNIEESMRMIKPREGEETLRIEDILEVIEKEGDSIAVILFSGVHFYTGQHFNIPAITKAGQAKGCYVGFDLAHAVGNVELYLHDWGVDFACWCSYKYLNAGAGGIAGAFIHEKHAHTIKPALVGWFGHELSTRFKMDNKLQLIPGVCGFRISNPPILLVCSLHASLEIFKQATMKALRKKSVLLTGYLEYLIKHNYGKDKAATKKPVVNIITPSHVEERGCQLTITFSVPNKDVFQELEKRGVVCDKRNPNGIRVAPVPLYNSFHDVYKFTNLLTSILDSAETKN
Chain of UniProt Q6ICG6 (Q6ICG6 whole entry, looked up): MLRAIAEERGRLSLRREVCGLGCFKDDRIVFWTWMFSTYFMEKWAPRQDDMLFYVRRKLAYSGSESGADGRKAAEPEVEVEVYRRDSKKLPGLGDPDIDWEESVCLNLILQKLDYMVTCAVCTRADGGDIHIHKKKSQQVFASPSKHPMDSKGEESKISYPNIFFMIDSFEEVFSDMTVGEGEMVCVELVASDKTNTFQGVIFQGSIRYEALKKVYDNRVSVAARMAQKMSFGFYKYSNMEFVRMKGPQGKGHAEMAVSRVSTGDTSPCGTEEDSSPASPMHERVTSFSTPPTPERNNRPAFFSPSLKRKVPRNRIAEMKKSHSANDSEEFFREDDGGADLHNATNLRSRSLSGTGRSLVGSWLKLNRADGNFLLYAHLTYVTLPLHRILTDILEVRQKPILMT
Chain of UniProt P07195 (P07195 whole entry, looked up): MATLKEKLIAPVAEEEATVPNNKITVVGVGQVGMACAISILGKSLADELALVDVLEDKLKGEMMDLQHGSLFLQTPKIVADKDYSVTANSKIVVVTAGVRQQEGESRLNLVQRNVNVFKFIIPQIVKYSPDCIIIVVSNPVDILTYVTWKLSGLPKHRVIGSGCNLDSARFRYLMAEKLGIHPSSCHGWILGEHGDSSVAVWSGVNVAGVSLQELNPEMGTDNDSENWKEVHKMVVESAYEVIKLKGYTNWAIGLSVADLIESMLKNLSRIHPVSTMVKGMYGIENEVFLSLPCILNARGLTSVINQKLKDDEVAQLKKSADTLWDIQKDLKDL
Chain of UniProt Q9HBG6 (Q9HBG6 whole entry, looked up): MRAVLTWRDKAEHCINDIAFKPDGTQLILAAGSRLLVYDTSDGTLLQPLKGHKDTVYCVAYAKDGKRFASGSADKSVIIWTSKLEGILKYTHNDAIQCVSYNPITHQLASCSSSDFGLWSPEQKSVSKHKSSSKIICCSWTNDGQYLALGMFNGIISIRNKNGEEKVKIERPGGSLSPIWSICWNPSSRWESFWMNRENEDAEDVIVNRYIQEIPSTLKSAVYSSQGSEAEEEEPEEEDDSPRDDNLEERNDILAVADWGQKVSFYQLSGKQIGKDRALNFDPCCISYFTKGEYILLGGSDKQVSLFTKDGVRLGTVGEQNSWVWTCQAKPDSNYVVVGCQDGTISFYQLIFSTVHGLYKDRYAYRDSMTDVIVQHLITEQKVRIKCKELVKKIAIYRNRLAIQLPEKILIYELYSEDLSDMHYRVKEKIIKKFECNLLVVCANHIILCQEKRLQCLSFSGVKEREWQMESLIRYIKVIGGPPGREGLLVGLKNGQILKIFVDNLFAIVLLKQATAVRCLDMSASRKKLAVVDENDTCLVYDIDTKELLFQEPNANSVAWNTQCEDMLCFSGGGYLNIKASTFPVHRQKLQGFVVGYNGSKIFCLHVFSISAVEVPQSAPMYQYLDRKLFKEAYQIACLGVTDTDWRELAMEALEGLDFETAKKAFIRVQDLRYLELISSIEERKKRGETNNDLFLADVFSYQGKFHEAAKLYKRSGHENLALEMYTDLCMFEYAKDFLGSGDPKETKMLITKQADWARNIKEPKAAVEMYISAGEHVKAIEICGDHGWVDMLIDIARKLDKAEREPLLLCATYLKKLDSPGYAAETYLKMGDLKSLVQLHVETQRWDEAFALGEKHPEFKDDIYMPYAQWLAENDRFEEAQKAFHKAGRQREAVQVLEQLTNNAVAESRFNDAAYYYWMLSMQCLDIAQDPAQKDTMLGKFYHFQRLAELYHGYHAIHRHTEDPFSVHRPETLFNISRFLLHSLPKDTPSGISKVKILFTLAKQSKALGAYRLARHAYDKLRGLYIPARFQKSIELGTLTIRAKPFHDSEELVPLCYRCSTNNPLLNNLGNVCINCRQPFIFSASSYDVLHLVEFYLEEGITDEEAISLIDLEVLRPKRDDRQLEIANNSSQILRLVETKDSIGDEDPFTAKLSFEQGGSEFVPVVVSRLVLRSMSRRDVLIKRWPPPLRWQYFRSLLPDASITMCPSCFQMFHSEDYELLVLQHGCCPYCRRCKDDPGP
Chain of UniProt Q9P2J5 (Q9P2J5 whole entry, looked up): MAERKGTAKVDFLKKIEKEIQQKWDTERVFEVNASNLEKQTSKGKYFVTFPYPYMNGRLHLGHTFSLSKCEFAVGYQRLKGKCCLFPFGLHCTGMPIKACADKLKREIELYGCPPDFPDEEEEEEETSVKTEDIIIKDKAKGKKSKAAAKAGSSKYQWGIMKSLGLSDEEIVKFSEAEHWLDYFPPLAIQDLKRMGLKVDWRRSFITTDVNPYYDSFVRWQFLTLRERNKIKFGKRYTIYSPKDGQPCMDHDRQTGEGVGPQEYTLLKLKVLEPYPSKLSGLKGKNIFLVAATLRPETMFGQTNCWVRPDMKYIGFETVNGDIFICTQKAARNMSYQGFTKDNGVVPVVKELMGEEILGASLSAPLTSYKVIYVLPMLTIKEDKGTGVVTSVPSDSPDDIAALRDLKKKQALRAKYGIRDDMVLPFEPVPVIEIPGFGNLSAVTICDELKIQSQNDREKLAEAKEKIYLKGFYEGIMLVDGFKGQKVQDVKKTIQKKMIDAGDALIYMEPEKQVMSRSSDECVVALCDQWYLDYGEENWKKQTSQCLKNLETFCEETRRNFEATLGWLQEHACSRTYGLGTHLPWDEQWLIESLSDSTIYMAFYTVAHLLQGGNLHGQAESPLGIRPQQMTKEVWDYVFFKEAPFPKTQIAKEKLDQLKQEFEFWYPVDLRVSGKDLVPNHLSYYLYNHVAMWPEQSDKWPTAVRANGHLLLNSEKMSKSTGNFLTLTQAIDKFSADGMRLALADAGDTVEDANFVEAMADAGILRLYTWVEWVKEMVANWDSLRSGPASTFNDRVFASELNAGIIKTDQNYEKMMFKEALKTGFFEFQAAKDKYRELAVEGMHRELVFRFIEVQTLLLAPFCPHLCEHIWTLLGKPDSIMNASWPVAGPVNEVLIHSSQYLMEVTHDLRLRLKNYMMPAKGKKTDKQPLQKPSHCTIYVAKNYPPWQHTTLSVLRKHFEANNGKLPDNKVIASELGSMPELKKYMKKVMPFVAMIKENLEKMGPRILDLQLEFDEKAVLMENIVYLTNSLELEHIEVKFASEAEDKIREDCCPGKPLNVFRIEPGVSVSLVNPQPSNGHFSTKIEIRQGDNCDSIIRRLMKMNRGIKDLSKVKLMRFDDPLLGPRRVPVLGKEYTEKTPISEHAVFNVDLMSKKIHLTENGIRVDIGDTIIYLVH
Chain of UniProt P48735 (P48735 whole entry, looked up): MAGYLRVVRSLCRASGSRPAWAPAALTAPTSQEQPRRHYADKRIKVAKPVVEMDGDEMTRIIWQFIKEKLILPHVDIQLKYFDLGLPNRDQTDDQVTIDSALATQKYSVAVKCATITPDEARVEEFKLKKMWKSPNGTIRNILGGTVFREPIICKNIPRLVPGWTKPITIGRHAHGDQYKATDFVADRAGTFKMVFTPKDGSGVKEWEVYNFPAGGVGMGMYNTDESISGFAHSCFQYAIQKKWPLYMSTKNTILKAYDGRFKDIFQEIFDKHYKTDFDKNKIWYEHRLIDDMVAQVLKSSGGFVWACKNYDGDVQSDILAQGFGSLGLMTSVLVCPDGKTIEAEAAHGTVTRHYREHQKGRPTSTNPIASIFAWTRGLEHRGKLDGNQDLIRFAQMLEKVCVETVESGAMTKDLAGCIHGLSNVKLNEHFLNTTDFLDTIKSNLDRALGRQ
Chain of UniProt Q02556 (Q02556 whole entry, looked up): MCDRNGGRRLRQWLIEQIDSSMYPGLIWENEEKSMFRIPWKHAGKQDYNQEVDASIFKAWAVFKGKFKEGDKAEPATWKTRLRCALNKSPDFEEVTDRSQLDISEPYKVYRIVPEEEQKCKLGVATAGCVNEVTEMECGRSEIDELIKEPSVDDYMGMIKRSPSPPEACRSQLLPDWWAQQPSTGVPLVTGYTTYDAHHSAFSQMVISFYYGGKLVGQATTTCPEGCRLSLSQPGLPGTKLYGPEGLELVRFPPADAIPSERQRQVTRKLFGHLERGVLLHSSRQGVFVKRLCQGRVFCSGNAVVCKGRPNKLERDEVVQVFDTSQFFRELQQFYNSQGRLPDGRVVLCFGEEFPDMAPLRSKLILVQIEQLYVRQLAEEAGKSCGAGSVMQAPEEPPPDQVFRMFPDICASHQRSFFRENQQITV

Row | Target | probe-labelled cysteine peptide fold change
1 | IFIT3_O14879_73_HLDGNNEAALECLR (UniProt O14879) | 0.0243
2 | KIF15_Q9NS87_949_CEQQMAK (UniProt Q9NS87) | -0.0346
3 | KIAA0930_Q6ICG6_269_VSTGDTSPCGTEEDSSPASPMHER (UniProt Q6ICG6) | -0.0849
4 | KDM5B_Q9UGL1_1072_ECAVNTFLTENSPYSLLEVLCPR (UniProt Q9UGL1) | 0.276
5 | IRF8_Q02556_410_MFPDICASHQR (UniProt Q02556) | -0.0684
6 | KMT2C_Q8NEZ4_638_HICGEDQIEDK (UniProt Q8NEZ4) | 0.0922
7 | IFT122_Q9HBG6_14_AEHCINDIAFKPDGTQLILAAGSR (UniProt Q9HBG6) | 0.0755
8 | LCP1_P13796_336_DDIQRAECMLQQAER (UniProt P13796) | -0.722
9 | KDM2B_Q8NHM5_770_SECEEAPR (UniProt Q8NHM5) | 0.0332
10 | KDM2B_Q8NHM5_991_RPPGICERPHR (UniProt Q8NHM5) | 0.0178
11 | LGALS1_P09382_17_PGECLR (UniProt P09382) | 0.188
12 | IPO4_Q8TEX9_962_DNICGALAR (UniProt Q8TEX9) | -0.0165
13 | KYNU_Q16719_22_CHPTDER (UniProt Q16719) | 0.702
14 | LARS_Q9P2J5_84_CCLFPFGLHCTGMPIK (UniProt Q9P2J5) | 0.114
15 | LDHB_P07195_294_GMYGIENEVFLSLPCILNAR (UniProt P07195) | 0.0179
16 | IDH2_P48735_308_SSGGFVWACK (UniProt P48735) | 0.0119
17 | INTS10_Q9NVR2_7_SAQGDCEFLVQR (UniProt Q9NVR2) | -0.504
